Laboratory results from the supplement of paper PMC10369915.
This is one part of the list. No stated cut-off is given here; in the data, active = 3.2 or more and inactive = the rest. Only a few entries rise above the background.

B1: CDKL5_Y177_L182P (peptide)
chain: VATRWYRSPEP
B2: CDKN1B_Y74 (peptide)
chain: PLEGKYEWQEV
B3: CEFIP_Y1332 (peptide)
chain: ALAAPYVLYPG
B4: CEP120_Y884_Q879H (peptide)
chain: HMRLRYLAAEE
B5: CEP152_Y268_Q265P (peptide)
chain: ERPIRYLNHQL
B6: CFAP45_Y289 (peptide)
chain: EQMLEYMEQLQ
B7: CFAP45_Y289_E291G (peptide)
chain: EQMLEYMGQLQ
B8: CFAP58_Y501 (peptide)
chain: SDRNLYSKNLV
B9: CFH_Y1008 (peptide)
chain: EKKDVYKAGEQ

molecular target: SHP2 C-SH2 domain E139D; experiment: enrichment score (SH2-bound / input frequency) (ratio); bacterial display of known human phosphotyrosine sites (pTyr-Var adds point mutants) read by sequencing; higher = stronger binding; tyrosines were phosphorylated by kinases first; settings: peptide library: pTyr-Var
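Further: displayed peptides selected on beads carrying the immobilized SH2 domain, with library peptides lacking any tyrosine serving as negative controls.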

Enrichment score, inactive:
B1 0.874, B2 1.01, B3 1.17, B4 2.54, B5 0.767, B6 0.683, B7 0.773, B8 0.648, B9 0.454

molecular target: SHP2 C-SH2 domain wild-type; experiment: as above; settings: peptide library: pTyr-Var

Enrichment score, inactive:
B1 0.632, B2 1.1, B3 0.865, B4 2.22, B5 0.717, B6 0.555, B7 0.74, B8 0.667, B9 0.579

molecular target: SHP2 N-SH2 domain L43F; experiment: as above; settings: peptide library: pTyr-Var

Enrichment score, inactive:
B1 0.578, B2 1.31, B3 1.08, B4 2.57, B5 0.636, B6 0.579, B7 0.863, B8 0.669, B9 0.482

molecular target: SHP2 N-SH2 domain T42A; experiment: as above; settings: peptide library: pTyr-Var

Enrichment score, inactive:
B1 0.672, B2 0.736, B3 0.78, B4 1.9, B5 1.1, B6 0.508, B7 0.682, B8 0.653, B9 0.55

molecular target: SHP2 N-SH2 domain T52S; experiment: as above; settings: peptide library: pTyr-Var

Enrichment score, inactive:
B1 0.687, B2 1.47, B3 0.867, B4 2.69, B5 0.665, B6 0.591, B7 0.778, B8 0.493, B9 0.525

molecular target: SHP2 N-SH2 domain wild-type; experiment: as above; settings: peptide library: pTyr-Var

Enrichment score, inactive:
B1 0.639, B2 1.09, B3 0.952, B4 2.26, B5 0.692, B6 0.633, B7 0.737, B8 0.69, B9 0.497
